ChEMBL document CHEMBL4888484, “Replenishing the malaria drug discovery pipeline: Screening and hit evaluation of the MMV Hit Generation Library 1 (HGL1) against asexual blood stage Plasmodium falciparum ,using a nano luciferase reporter read-out” (2022)
“And” between values parts separate entries of the source, which are not always exact repeats. Equal entries are not always repeated. Out of some 150,000 compounds screened, about 540 (0.36%) showed an effect of 50% or more. The list shows a part of the results.

Tested on: Plasmodium falciparum
Assay: Primary screen in NF54 nanoGlo assay, in single point, at 2uM, 72h; a lower Z score goes with more inhibition
Assay type: functional, Erythrocyte
Conditions: timepoint 72 hour

Row | Structure (SMILES) | % Inhibition [%] | Z score | % Inhibition (2 µM)
1 | CCNC(=O)c1ccc(NC[C@@]2(C)CCCO2)nc1 | -10 | 1.25 | 
2 | C=CCCC(=O)N1CCCC[C@H](c2ccccc2)C1 | -9 | 1.32 | 
3 | CC(=O)N1CC2=Nc3cccc4c3c(cn4CCC(C)C)[C@H](c3cccc4cccnc34)C2=C1O | -10 | 1.35 | 
4 | CCCCC(C(=O)NC(C)c1ccccc1)C(=O)NC(C)c1ccccc1 (centres undefined) | -1 | 0.22 | 
5 | Cn1ccc(-c2noc(COc3nsnc3N3CCOCC3)n2)n1 | -6 | 1.21 | 
6 | COc1ccc(-c2nc3cnccn3c2Nc2ccc3c(c2)OCO3)cc1OC | 1 | -0.1 | 
7 | COCc1nc(C)cc(N2CC[C@H](N(C)c3cccc(C#N)c3)C2)n1 | 0 | 0.04 | 
8 | CC(C)(C)Oc1ccc(CNC(=O)[C@H]2CCc3cncn3C2)cn1 | -6 | 0.91 | 
9 | CCc1nc(NC(=O)CNC(=O)c2ccsc2)sc1C | 10 | -1.2 | 
10 | COC(=O)c1cc(NC(=O)C2CC(C)(C)C2)n(C)n1 | 1 | -0.13 | 
11 | Cn1c(=O)[nH]cc(C(=O)N2CCOC[C@H]2c2nc(-c3ccccc3)no2)c1=O | -2 | 0.2 | 
12 | C=CCn1c([C@H](C)OC(C)C)n[nH]c1=O | -4 | 0.49 | 
13 | CNC(=O)[C@@H]1CCCCN1S(=O)(=O)c1cccc(-n2cnnn2)c1 | -7 | 0.79 | 
14 | Cc1noc(C)c1CCCNC[C@H](C)c1ccccc1 | -5 | 0.46 | 
15 | Cc1noc([C@@H]2CNCCCN2C(=O)c2ccccc2)n1 | -7 | 1.26 | 
16 | Cn1cc(CN(CCO)Cc2cnc3c(-c4ccccc4)cnn3c2)cn1 | -5 | 1.07 | 
17 | CCOc1c(CNC[C@]2(O)CCCN3CCCC[C@@H]32)cccc1OC | -9 | 1.41 | 
18 | CCS(=O)(=O)NCC(=O)N1CC(c2ccsc2)CC1C (centres undefined) | -7 | 0.95 | 
19 | O[C@H]1[C@H](NCc2c[nH]c3ccccc23)[C@H]2CO[C@H](O2)[C@@H]1N1CCC(Cc2ccccc2)CC1 | -11 | 1.72 | 
20 | Cc1noc(C)c1CN(C)c1ccc(C(=O)N2CCC(C)CC2)cn1 | -18 | 2.6 | 
21 | Cc1ncnc(OCC2CCN(C[C@H](O)C(F)(F)F)CC2)c1C | 1 | -0.09 | 
22 | Cc1cnc(CN(C)Cc2cccc(Cl)c2)cn1 | -2 | 0.3 | 

Row | Structure (SMILES) | % Inhibition [%] | Z score | % Inhibition (2 µM)
23 | COc1ccc(CC(=O)NCc2cccnc2-n2ccnc2)nc1 | 4 | -0.69 | 
24 | CN(c1ncnc2c1[nH]c1ccc(F)cc12)C1CCCCC1 | 0 | -0.02 | 
25 | O=C(NCCc1ccc(C(F)(F)F)cn1)OCCCF | -5 | 0.92 | 
26 | C=CCN(C)c1nnc(C2CCCCO2)n1CC(OC)C1CC1 (centres undefined) | -12 | 1.54 | 
27 | CO[C@@H](C)c1nc(COc2c(C)c(C)nc3ccc(F)cc23)cs1 | 5 | -0.58 | 
28 | Cc1nn(C)c(C)c1CC(=O)Nc1nc(-c2cccs2)nn1C | -13 | 2.05 | 
29 | Cc1ccc(C)c(NC(=O)N(C)Cc2nc([C@H]3CC34CCN(C)CC4)no2)c1 | -11 | 1.51 | 
30 | O=C(Cc1ccsc1)NC1CCN(c2ccc(-c3cccc(F)c3)nn2)CC1 | -14 | 1.63 | 
31 | O=C(Cc1ccc(OC(F)F)cc1)NC1CCN(C2CCC2)CC1 | 3 | -0.5 | 
32 | CCCc1noc([C@H]2CCC(=O)N(Cc3ccc(Cl)cc3)C2)n1 | -7 | 0.84 | 
33 | CC1OCCN(C(=O)Nc2ccccc2OCC2CC2)C1C (centres undefined) | -11 | 1.42 | 
34 | COc1ccc(CN2C(=O)N[C@@H](CC(=O)Nc3cccc4[nH]ccc34)C2=O)cc1OC | 4 | -0.56 | 
35 | CCn1cc(C(=O)Nc2cc(Cl)ccc2NC2CC2)cn1 | -11 | 1.65 | 
36 | CCNC(=O)[C@H](C)NC(=O)Nc1ccc(F)cc1 | 0 | -0.06 | 
37 | O[C@@H](Cn1cnc2c(N3CCOCC3)ncnc21)c1ccccc1Cl | 7 | -0.78 | 
38 | COc1cc([C@H]2CC(=O)Nc3c(-c4ccc(Cl)cc4)nsc32)ccc1O | -14 | 1.72 | 
39 | Cc1cccc2c(=O)n(CC(=O)Nc3cccc(C(=O)NC4CC4)c3)cnc12 | -2 | 0.17 | 
40 | CN1C(=O)CN(Cc2cncn2C2CCCCC2)C(=O)c2ccccc21 | 3 | -0.4 | 
41 | CC(C)Oc1ccccc1CN1CC(F)(F)C[C@H]1COc1ccncc1 | 2 | -0.31 | 
42 | O=C(N[C@H]1C[C@@H]2C[C@H]1CN2S(=O)(=O)c1ccc(C(F)(F)F)cc1)c1cccnc1 | 2 | -0.37 | 
43 | COCc1nc(CNc2nc(N(C)C)nc3c2CCCC3)no1 | -6 | 0.73 | 
44 | CCC(O)CN1CCOC(CN2CCN(C(=O)c3c(OC)cccc3OC)CC2)C1 (centres undefined) | 5 | -0.7 | 

Row | Structure (SMILES) | % Inhibition [%] | Z score | % Inhibition (2 µM)
45 | COc1ccc(NS(=O)(=O)c2ccc3c(c2)C(C)(C)CN3CC(=O)N2CCCC2)cc1 | -4 | 0.42 | 
46 | c1ccc2c(c1)CCC[C@@H]2n1ccnc1-c1cc2n(n1)CCCNC2 | 3 | -0.46 | 
47 | Cc1cc(C)nc(CN(C)CC(=O)NCCc2ccc(F)cc2)c1 | 0 | 0.06 | 
48 | Cc1oc(-c2ccccc2)nc1Cn1nnnc1C | -15 | 1.46 | 
49 | COc1nn(C)cc1C(=O)N1CCC[C@H](Oc2cccnn2)C1 | 41 | -4.67 | 
50 | Cc1ccc(CN2CCN(S(=O)(=O)c3ccc(C4CCCCC4)cc3)c3cccnc32)cc1 | -14 | 1.61 | 
51 | CC(C)Cc1cc(CNC(=O)c2cncnc2)on1 | 10 | -1.27 | 
52 | COc1ccc2c(c1)c(NC(C)=O)c1n2C[C@@](C)(C(=O)NC2CCCC2)N(Cc2ccco2)C1=O | -14 | 1.38 | 
53 | O=C(c1ccccc1)c1cc(-c2ccccc2)on1 | -1 | 0.2 | 
54 | Cc1cc(Cl)ccc1OCC(=O)N1CCC(Cn2cnnc2)CC1 | -14 | 2.21 | 
55 | CCN1CCC[C@@H]1CNCc1cccs1 |  |  | -18% and -1%
56 | NC(=O)C1CCC(CNC(=O)C#Cc2ccccc2)O1 (centres undefined) | 27 | -3.06 | 
57 | CN1CCN(C2(CNC(=O)[C@H](O)c3ccccc3)CCCC2)CC1 | -6 | 1.08 | 
58 | Cc1ccccc1[C@H](CO)N(C)C(=O)c1ccnnc1C | -1 | 0.21 | 
59 | CCc1onc(C)c1Cn1c(=O)c(C(F)(F)F)cn(C(C)C)c1=O | 11 | -1.36 | 
60 | CCCC1CC(C(=O)NS(=O)(=O)CC(F)(F)F)CCO1 (centres undefined) | 4 | -0.58 | 
61 | Fc1ccc(-c2csc(-n3nccc3-c3ccccc3)n2)cc1 | -4 | 0.52 | 
62 | Cc1ccn2c(CN3CCN(C(=O)c4cc(C)nc5c4cnn5C(C)C)CC3)c(C)nc2c1 | 6 | -0.73 | 
63 | Cc1ccc(OS(=O)(=O)c2cccc(C(F)(F)F)c2)c(-c2nc3cc(C)ccc3o2)c1 | 4 | -0.84 | 
64 | CC1(C)C(=O)Nc2cc(C(=O)NC3(c4cccc(Cl)c4)CC3)ccc21 | -4 | 0.55 | 
65 | CC1CCC(C)N1Cc1nc(-c2ccccn2)no1 (centres undefined) | -10 | 1.51 | 
66 | C[C@@H](Cc1cnccn1)n1ccnc1-c1nccn1C | -3 | 0.33 | 

Row | Structure (SMILES) | % Inhibition [%] | Z score | % Inhibition (2 µM)
67 | Cc1oc(-c2ccccc2)nc1CN[C@H]1CCOC12CCOCC2 | -7 | 1.05 | 
68 | CNc1cc(C)nc(N2CCn3nc(CNC(=O)C4CCCC4)cc3C2)n1 | -5 | 0.65 | 
69 | CCOC(=O)CN(CC)C(=O)c1ccc(C#N)c(C)n1 | -4 | 0.39 | 
70 | Cc1ncc(CNC(=O)c2cn(C)nc2-c2ccccc2Cl)s1 | 8 | -1.17 | 
71 | COc1cccc(CN2C[C@]34C=C[C@H](O3)C(C(=O)N(C)Cc3nccn3C)C4C2=O)c1 (some centres undefined) | -7 | 1.37 | 
72 | COC(=O)CC1(NC(=O)Nc2nccs2)CCC1 | 0 | 0.09 | 
73 | C[C@H]1C(=O)NCCN1C(=O)CCCc1c[nH]c2ccccc12 | -10 | 1.34 | 
74 | CC(C)(C)c1nnc(-c2cccnc2)o1 | 6 | -0.89 | 
75 | COc1cc2c(-c3ccccc3)c(C)oc2cc1CN1CCN(Cc2ccccc2)CC1 | -7 | 1.4 | 
76 | Cc1n[nH]c(C)c1CC(=O)N1C[C@]2(C)C[C@H]1CC(C)(C)C2 | -16 | 1.45 | 
77 | COc1ccc([C@@H](NC(=O)c2nn(-c3cccc(C(C)C)c3)cc2O)c2nccn2C)cc1 | -3 | 0.52 | 
78 | Cc1cnc(CNC(=O)c2cccc3cc(C)oc23)cn1 | 10 | -1.34 | 
79 | C#CCCC1(CCC(=O)N2CCc3ncc(C)cc32)N=N1 | -5 | 0.95 | 
80 | C[C@@H](CNC(=O)Cc1nn(C)c2ccccc12)c1ccc(F)cc1F | -12 | 1.78 | 
81 | CN(Cc1cnn(C)c1)C(=O)C1=NN(c2ccccc2)[C@H](C(N)=O)C1 | -6 | 1.07 | 
82 | O=C(C1CCNCC1)N1CCN(C/C=C/c2ccccc2)CC1 | -15 | 1.99 | 
83 | COC[C@H]1CCN(C(=O)c2cc3c(cc2C)OCCO3)C1 | -1 | 0.26 | 
84 | Cc1cccc(NC(=O)Cn2cnc3c(c(C)c(C)n3-c3ccccc3)c2=O)c1C | 5 | -0.54 | 
85 | COc1ncccc1NC(=O)N1CCc2c(sc(N)c2C#N)C1 | 11 | -1.25 | 
